Data taken from the supplement of paper PMC3724861.
The list shows a part of the results.

What follows are sequences tested on T1, Caupolican (Caup) homeodomain DNA-binding domain (assay: PBM E-score (8-mer, recovered from the published 9-mer minima) (E-score (dimensionless, -0.5 to 0.5)); Drosophila protein; higher = stronger relative binding preference, active = 0.31 or more).
T1 sequence: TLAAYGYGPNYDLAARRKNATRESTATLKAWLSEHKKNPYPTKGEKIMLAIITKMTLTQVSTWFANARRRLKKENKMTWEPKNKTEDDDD
How it was run: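 An enrichment score, with higher meaning stronger, expresses relative binding preference for each short DNA word. The protein used was Caup's homeodomain DNA-binding domain (residues 214-303), produced by in vitro transcription and translation and tested at 100 nM on custom-designed protein binding microarrays. The 8-mer values were recovered from published 9-mer scores, each equal to the lower of its two constituent 8-mer scores.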

PBM E-score, ≥ 0.0212:
ACGCATCA

PBM E-score, ≥ -0.0169:
TGGAAGAA

PBM E-score, ≥ 0.052:
ACCTAAAA

PBM E-score, ≥ 0.135:
AACCCATA

PBM E-score, inactive:
GTCCCGGA -0.0787
CCTGGTAA 0.0149
CCCGACGA -0.0169
CCTAGTAG 0.0229
CGGCGTTC -0.195
GCATGAAC 0.104
GCGGAATA -0.0586
GACCGTTA 0.0165
CATCGCAC -0.083
TCAGGACA 0.159
CGCGTCTC -0.0855
ACTCTTAT 0.0766
TATACAGA 0.217
CGCATACA 0.19
GCGGTAGA -0.143
GGCGTTCA -0.0934
CAGTACCC -0.0363
ACCCACTG -0.0838
ACTCTCCG -0.151
ACGAATAG -0.00982
CTCCTAGC -0.16
CCAGTAGG -0.0825
TATTACCA 0.18
GGAGTTGA -0.079
ACGGAGGC -0.228
GATCACGC 0.0866
CGTGACGA -0.0536
TCCCGCAA -0.0491
AAGCGCAT -0.0288
CGAGTCGC -0.167
TAGTACGA 0.0955
CCCCCCTC -0.37
TATAGTAA 0.217
CCCGTGCC -0.28
GATGCTAC 0.0965
ATTCAGTC 0.00318
AAAATAGA 0.105
AAATCACA 0.108
AGCGGCCA -0.198
CGATCCCC -0.0622
ATGATGGC -0.037
AGCTACAA 0.193
ACGAGAGA 0.0344
CAGGTTAA 0.126
AAACTCTA 0.0323
CTATGAGA -0.107
AAAATCTA 0.0466
AGTGCTGC -0.139
CAGTTATC -0.0794
ACCGTCGG -0.206
ATCGCCGG -0.179
ACCCCTCG -0.218
GCTCCACC -0.174
AGTGACTG -0.0421
AGCTCAAC -0.0254
GTTTTTAA 0.0416
ATAGAATC 0.0121
AATTACGG -0.0308
AAAAAGAA 0.0308
GCTCTACC -0.0838
AGTATCCC -0.0274
TCTCTGAA -0.00572
AATGAAAT 0.139
CCCACAGC -0.0615
AAAGTACT 0.0747
AGCCCGGC -0.274
AACGAGTC 0.0439
AGCCTCGC -0.13
AGCATTGG -0.0485
CATAACCA 0.168
GTGAGTCA 0.0761
ATTAGTGA 0.107
CCAGACCG -0.146
GTAAGAAA 0.0907
CATCCACC -0.054
TATGGTAA 0.118
GCGTGGAA -0.169
GTACAAAC 0.265
ACCATGTG 0.145
AAAGCGTC -0.114
TCCCATCA -0.0689
ATAATTAG 0.103
GGTGGTAA 0.0159
ACTCTACC 0.00157
ATCATGCC 0.0227
ATTGCGAA 0.0868
AGTCGGTA 0.0133
AACCCAGG -0.0346
CGAAAGTC -0.142
CACTGCGC -0.211
AAAGAGTG 0.0835
GTCCACTA 0.0623
AGTAAAAG 0.0382
GTCAAGTA 0.119
GAGACTCC -0.128
CGCTGTCC 0.0333
CAAAAGTG 0.0472
AAAAGGGA -0.0407
GTATACCA 0.101
AAACACTA 0.193
AGGATGCG -0.136
ACTAGAAG 0.00911
GTTCCGTA 0.161
CCTAACGA -0.104
AAAAAGAT 0.0993
CTCCCCGC -0.2
AGGAAGTA 0.0399
GACGCGTC -0.0916
CGGCTAAA -0.0694
ACGTGGTG 0.063
GGGGGTCA -0.293
TGTTTGAA 0.193
AGAATTCG 0.0601
CGGGTGCC -0.264
ATGGCACC -0.167
AGTTTTAC 0.0904
CGCGTTGC -0.0579
CTTGACCA 0.0911
AAGTAGCG -0.0607
CGGTCAAG -0.0422
ACTGTAAC 0.17
CAGTTGAA 0.0676
GAACCAGA 0.034
GGCCCCGA -0.219
CAAGTTCC 0.0429
AGATAGAG -0.0135
GTAGGTTA 0.112
GTCTAAGA 0.0233
GGCGGAGA -0.216
GCATCGGC -0.105

PBM E-score, active:
GACAACAC 0.352
ACATGATG 0.351
AACATTGT ≥ 0.347
GGCATGTA 0.378
AACATGCG 0.356

PBM E-score, ≥ -0.0172:
AGGAGAGA

PBM E-score, ≥ 0.129:
ACCAATTA

PBM E-score, ≥ 0.0208:
AACTCGGT

PBM E-score, ≥ 0.27:
ACACTACA

PBM E-score, ≥ 0.161:
ATTGATAA
